Test results as given in PubChem BioAssay AID488969 (Vanderbilt High Throughput Screening Facility, 2010).
In all, about 110,000 compounds were measured (“z-score”: median about -0.1, highest 2% from about 2 on). Some of the results follow.

What follows are compounds tested against Metabotropic glutamate receptor 8 (Rattus norvegicus) (UniProt P70579) (assay: rat mGluR8 modulators via GIRK flux, primary screen, cell-based, thallium flux, HTS (AID 488969)). Settings: HEK293 rat mGluR8, GIRK (G protein-gated inwardly rectifying potassium channel) thallium flux, FluoZin2; at 10 µM; stronger effect = higher value; submaximal glutamate (EC20) added with thallium.
UniProt P70579, sequence (P70579 whole entry, looked up): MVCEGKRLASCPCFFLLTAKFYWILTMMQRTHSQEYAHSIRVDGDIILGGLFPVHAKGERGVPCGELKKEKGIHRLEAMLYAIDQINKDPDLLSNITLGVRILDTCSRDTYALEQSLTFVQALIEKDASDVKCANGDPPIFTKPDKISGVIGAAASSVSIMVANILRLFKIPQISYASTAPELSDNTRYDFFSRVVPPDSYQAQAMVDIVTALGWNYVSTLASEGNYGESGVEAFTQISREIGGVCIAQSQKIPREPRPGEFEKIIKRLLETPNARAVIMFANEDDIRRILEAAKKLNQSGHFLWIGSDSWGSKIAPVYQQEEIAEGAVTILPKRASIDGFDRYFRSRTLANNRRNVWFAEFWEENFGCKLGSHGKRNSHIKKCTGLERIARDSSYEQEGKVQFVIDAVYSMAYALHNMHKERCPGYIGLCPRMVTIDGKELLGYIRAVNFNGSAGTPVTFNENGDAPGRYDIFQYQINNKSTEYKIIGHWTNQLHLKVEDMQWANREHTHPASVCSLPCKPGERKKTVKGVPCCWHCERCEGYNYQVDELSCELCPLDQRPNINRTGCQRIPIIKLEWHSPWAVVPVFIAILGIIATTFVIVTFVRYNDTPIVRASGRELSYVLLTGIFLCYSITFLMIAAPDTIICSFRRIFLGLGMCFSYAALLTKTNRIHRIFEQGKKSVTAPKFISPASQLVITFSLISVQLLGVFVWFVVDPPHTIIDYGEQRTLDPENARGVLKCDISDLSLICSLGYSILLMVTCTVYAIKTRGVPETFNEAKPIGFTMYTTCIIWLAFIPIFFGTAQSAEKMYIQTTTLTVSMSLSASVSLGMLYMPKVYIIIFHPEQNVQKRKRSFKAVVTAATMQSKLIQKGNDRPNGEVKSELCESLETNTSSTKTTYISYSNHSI
`CC1(C)N=C(c2ccccn2)C(C)(C)N1O` showed a z-score of 0.321. `CC(CCc1ccccc1)NC(=O)C(=O)NCc1ccccc1` (centres undefined) gave a z-score of -0.0826. Compound `COc1ccc(Cn2nnnc2C(c2ccc(C)cc2)N2CCN(C3CCCC3)CC2)cc1` (centres undefined) has a z-score of 0.353. `COc1ccc(N2CCN(C(CNS(=O)(=O)c3cccs3)c3cccnc3)CC2)cc1` (centres undefined) was tested, and the z-score was 0.509. `CCCC1CCC(C2=N/C(=C\c3ccc(OC)c(OC)c3)C(=O)O2)CC1` (centres undefined) gave a z-score of 0.153. `CC(C)CC(=O)N1CCC(O)(CS(=O)(=O)Cc2ccccc2Cl)CC1` showed a z-score of -0.0509. Compound `COC(=O)CSc1nc(C)c2ccc(OC)cc2n1` has a z-score of -0.356. For `Cc1ccc(C(c2c(C)nn(-c3ccccc3)c2N)c2c(C)nn(-c3ccccc3)c2N)cc1`, the z-score was -0.202. With `COC(=O)c1ccc(NC(=O)c2cccc(Cl)c2)o1` the z-score was -0.0827. With `O=C(CSc1nc2c([nH]c3ccccc32)c(=O)n1-c1ccc(F)cc1)NCc1ccco1` the z-score was 1.22. Compound `Cn1c(O)c(C2=c3ccccc3=NC2=O)[nH]c1=S` has a z-score of 0.0696. `CC(CC(=O)NC1CCCC1)c1ccccc1` (centres undefined) was tested, and the z-score was 0.103. Work on `Cc1c(C(=O)O)cccc1-n1c(C)cc(/C=N/NC(=O)c2cc3ccccc3o2)c1C` yielded a z-score of 0.261. `Cc1cc(NC(=O)CCC(=O)N(Cc2ccco2)C(C)(C)C(=O)NC2CCCCC2)no1` gave a z-score of -0.272. In the case of `NC(=O)c1ccccc1NC(=O)/C=C/c1ccccc1`, the z-score is reported as -0.217. `COc1cc(OC)cc(-c2nc3ccccc3c(=O)n2NC(=O)c2cccnc2Cl)c1` showed a z-score of -0.0673. `O=c1oc(-c2cccs2)nc2sc3c(c12)CCCCC3` gave a z-score of 0.0702. With `CC(C)NC(=O)C(OC(=O)c1ccccc1)C(OC(=O)c1ccccc1)C(=O)O` (centres undefined) the z-score was -0.107. `CCCn1nc(NC(=O)c2cccs2)c2cc3ccccc3nc21` showed a z-score of -0.864. Compound `Cn1c(=O)c2c(ncn2CC(=O)OCC(=O)NC(c2ccccc2)c2ccccc2)n(C)c1=O` has a z-score of 0.0294. `CCC(NS(=O)(=O)c1ccc(C)cc1)C(=O)N1CCC2(O)CCCCC2C1` (centres undefined) gave a z-score of -0.573. `c1coc(-c2nc(-c3ccncc3)no2)c1` showed a z-score of 0.167. For `COc1ccccc1N1C(=O)CC(Sc2n[nH]c(-c3cccc(C)c3)n2)C1=O` (centres undefined), the z-score was -0.119. Compound `CCOC(=O)C(C)Sc1ncnc2nc[nH]c12` (centres undefined) has a z-score of -0.412. `CCOc1ccc2nc(NC(=O)CS(=O)(=O)c3ccc(C)cc3)sc2c1` gave a z-score of -0.503. Work on `Cc1nc2ccccc2c(=O)n1CCN1CCOCC1` yielded a z-score of -0.157. `COc1ccc(N(CC(=O)NCc2ccco2)S(C)(=O)=O)cc1` was tested, and the z-score was -1. Work on `C(=C\c1nc(N2CCCC2)c2ccccc2n1)/c1ccccc1` yielded a z-score of -0.18. In the case of `CCOC(=O)Nc1c(C(=O)OC)[nH]c2cccc(OC)c12`, the z-score is reported as -0.131. With `Cc1ccc(Nc2nc3ccccc3[nH]2)nc1` the z-score was -0.646. `O=C(NC1CCCCCCC1)c1ccco1` showed a z-score of -0.57. `O=C(Nc1ccc(S(=O)(=O)N2CCc3ccccc3C2)cc1)C1CCCO1` (centres undefined) showed a z-score of -0.149. For `O=C(CN1CCN(Cc2ccccc2)CC1)N/N=C\C=C/c1ccco1`, the z-score was 0.161. `C=C(C)c1cccc(C(C)(C)NC(=O)N2CCN(c3ncccn3)CC2)c1` was tested, and the z-score was 0.293. Compound `CCOc1ccccc1CN1C(=O)c2ccccc2C1C(=O)NCC1CCCO1` (centres undefined) has a z-score of 0.0424. `CC(NC(=O)CSc1ncnc2nc[nH]c12)c1ccccc1` (centres undefined) showed a z-score of -0.58. For `C=CCn1c(=O)n2ncnc2c2c3c(sc21)CCCC3`, the z-score was -2.31. Work on `CC(=O)c1cccc(NC(=O)CCS(=O)(=O)c2cccc3nsnc23)c1` yielded a z-score of 0.176. Work on `COc1ccc(N2Nc3n[nH]c(N)c3N2)cc1` yielded a z-score of 0.76. In the case of `CCOC(=O)c1c(NC(=O)CC(C)C)sc(C(C)=O)c1C`, the z-score is reported as 0.78. `COC(=O)/C(C#N)=C1/SC=C(C)N1c1ccccc1` showed a z-score of 0.185. `CCC(C)(C(=O)NC1CCCC1)N(C(=O)c1ccccn1)c1ccc(C)cc1` (centres undefined) gave a z-score of 0.129. Work on `CCOC(=O)c1nnn(-c2nc(OC)nc(N3CCCC3)n2)c1-c1ccccc1` yielded a z-score of -0.519. `O=C(c1ccc(Cl)cc1)N1CCCOC1` gave a z-score of 0.107. `c1nc(N2CCCC2)c2[nH]cnc2n1` showed a z-score of -0.102. Compound `Cc1cc(/C=N/NC(=O)COc2cccc3cccnc23)c(C)n1-c1ccc(O)cc1` has a z-score of -0.169. `O=S(=O)(NC1=NCCC1)c1cccc(NS(=O)(=O)c2ccc(OC(F)(F)F)cc2)c1` gave a z-score of -0.199. `O=C(NCc1ccco1)C(Cc1ccccc1)NS(=O)(=O)c1cccc2nsnc12` (centres undefined) was tested, and the z-score was -0.0409. Work on `CC1(C)C2([N+](=O)[O-])CN3CC1([N+](=O)[O-])CN(C2)C31CCCC1` yielded a z-score of -0.176. `COc1ccc(C2SCC(C(=O)O)N2C(C)=O)cc1` (centres undefined) was tested, and the z-score was 0.181. `CCOC(=O)Cc1sc(N)nc1C` was tested, and the z-score was -0.365. Compound `Nc1nc(N)c2sc3nc4c(cc3c2n1)CCC4` has a z-score of 0.142. `O=C(O)CCSc1nc2ccccc2s1` gave a z-score of -0.145. Work on `CCn1c(=O)c(C(=O)CN2CCOCC2)c(N)n(Cc2ccccc2)c1=O` yielded a z-score of -0.0407. `COCCNC(=O)c1ccc2ccccc2n1` was tested, and the z-score was -0.0969. Work on `CCOC(=O)c1c(C)n(C)c2ccc(OCC(O)CN3CCN(C)CC3)cc12` (centres undefined) yielded a z-score of -0.0858. In the case of `Nc1cccc(-c2cn3cc(C(F)(F)F)cc(Cl)c3n2)c1`, the z-score is reported as -0.0801. In the case of `O=C1OC(Nc2ccc(F)cc2F)c2ccccc21` (centres undefined), the z-score is reported as -0.78. `COc1ccc(OC)c(NC(=O)C23CCC(C)(C(=O)O2)C3(C)C)c1` (centres undefined) was tested, and the z-score was 0.299. Work on `CC1=CC(C)(C)N(S(=O)(=O)c2ccc(C)cc2)c2ccccc21` yielded a z-score of 0.0263. `CCC(=O)Nc1ccc(C(=O)NNC(=O)C(c2ccccc2)c2ccccc2)cc1` was tested, and the z-score was -0.429. `CCOC(=O)CC1(c2ccccc2)CCOC(C)(C)C1` (centres undefined) gave a z-score of 0.114. `O=C(CCN1C(=O)c2ccccc2C1=O)N1CCN(C(=O)c2ccccc2)CC1` gave a z-score of -0.116. `Cn1c(SCC(=O)Nc2nccs2)nnc1-c1ccc(S(=O)(=O)N2CCCC2)cc1` gave a z-score of -0.392. In the case of `CCOc1ncccc1C(=O)OCC(=O)Nc1ncc(C(F)(F)F)cc1Cl`, the z-score is reported as -0.105. `CCc1ccc(NC(=S)NC(=O)CC(C)C)cc1` showed a z-score of 0.0726. `CCOC(=O)N1CCN(c2c(NCCCN(C)c3ccccc3)c(=O)c2=O)CC1` was tested, and the z-score was -0.525. With `COc1ccccc1CN1C(=O)[C@@H]2C(CCC(N)=O)NC3(C(=O)Nc4c3ccc(Cl)c4C)[C@@H]2C1=O` (some centres undefined) the z-score was 1.31. `Cc1cc(NC(=O)CSc2ccc3nnc(-c4cccc(F)c4)n3n2)no1` was tested, and the z-score was -0.196. With `COc1ccccc1CNC(=O)c1ccoc1C` the z-score was 0.225. For `COC(=O)C(NC(=O)c1ccco1)(Nc1cc(C)ccn1)C(F)(F)F` (centres undefined), the z-score was 0.329. With `Cc1cccc(C)c1NC(=O)CSCc1cccc(CSCC(=O)Nc2c(C)cccc2C)n1` the z-score was 0.126. `CC(=O)Nc1nonc1NC(=O)CSC1=NCCS1` showed a z-score of 0.171. For `COc1ccc(C2c3c4c(n(C)c3CCN2C)CCN(C)C4c2ccc(OC)cc2)cc1` (centres undefined), the z-score was 0.471. In the case of `COc1ccnc(N=CNOCc2cccc(Cl)c2Cl)c1C#N`, the z-score is reported as -0.158. With `CC(=O)c1c(C)nn(C(C)CC(=O)O)c1C` (centres undefined) the z-score was -0.0267. `Cc1noc(C)c1CSc1nc2cc(S(=O)(=O)N3CCOCC3)ccc2o1` gave a z-score of 0.848. `CC1=C(C(=O)Nc2ccccc2)C(c2ccncc2)C(C#N)=C(SCC(=O)Nc2ccccc2)N1` (centres undefined) showed a z-score of -0.1. For `O=C(OCc1cnc(Cl)s1)c1cccc(Cl)c1Cl`, the z-score was -0.114. With `O=c1cc(-c2ccccc2)[nH]n1-c1ccc([N+](=O)[O-])cc1` the z-score was -0.272. In the case of `O=C(N/N=C/c1cc([N+](=O)[O-])ccc1N1CCNCC1)c1ccc([N+](=O)[O-])cc1`, the z-score is reported as 0.214. `C=CCC(CC=C)(NC(=O)c1ccccc1C)c1ccccc1` showed a z-score of -0.397. Work on `Cc1cccc(OCC(=O)NCC(=O)n2nc(C)cc2C)c1` yielded a z-score of 0.134. In the case of `COc1ccc(CSc2nc(C)cc(=O)[nH]2)cc1Br`, the z-score is reported as -1.02. Work on `O=C(NC1CCCC1)C1(c2ccccc2)CCN(S(=O)(=O)c2ccccc2)CC1` yielded a z-score of -0.701. Compound `CCCOc1ccc(C(=O)NC(C)C(=O)O)cc1` (centres undefined) has a z-score of 0.427. `CCN(C1CCCCC1)S(=O)(=O)c1ccc(C(=O)O)cc1` showed a z-score of 0.0871. `Cc1nn2c3ccccc3n(CCN3CCCCC3)c2nc1=O` gave a z-score of -0.664. `Cc1ccccc1NC(=O)C1CCCN(S(=O)(=O)c2cnc[nH]2)C1` (centres undefined) was tested, and the z-score was -0.0966. Work on `Cc1cccc(OC(C)C(=O)NCc2ccc(S(N)(=O)=O)cc2)c1` (centres undefined) yielded a z-score of -0.238. `O=C(O)c1ccc(OC2CSC2)cc1` gave a z-score of -0.101. `Cn1c(-c2ccccc2)cnc1N` gave a z-score of -0.412. With `CC(C)=CC(=O)Nc1ccccc1C(N)=O` the z-score was 0.312. `Cc1cn(C2OC(COC(=O)c3ccccc3)C(OC(=O)c3ccccc3)C2OC(=O)c2ccccc2)c(=O)[nH]c1=O` (centres undefined) gave a z-score of -1.18. `O=[n+]1c2c(n([O-])c3c1CCC3)CCCC2` gave a z-score of -0.212. `O=C(O)/C=C\C(=O)NCc1ccccc1` showed a z-score of 0.0876. `CCCCN(Cc1ccccc1)C(=O)C1CCN(S(=O)(=O)c2c(C)noc2C)CC1` showed a z-score of -0.335. With `O=C(COC(=O)C1CCC(=O)N1)Nc1cc(Cl)ccc1Cl` (centres undefined) the z-score was 0.194. For `COC(=O)C1CCN(S(=O)(=O)c2ccc(OC)cc2)CC1`, the z-score was -0.0737. `COc1cc(OC)cc(-c2nnc(SCC(=O)N3CCCc4ccccc43)o2)c1` gave a z-score of -0.528. In the case of `COc1ccc2nc(C)cc(SCC(=O)N/N=C/c3ccc(O)cc3O)c2c1`, the z-score is reported as 0.263. `CC(C)N(Cc1nc(-c2ccccc2)no1)S(=O)(=O)c1ccccc1` was tested, and the z-score was -0.225. Work on `Cc1nnc(SCC(=O)N2c3ccccc3CC2C)s1` (centres undefined) yielded a z-score of 0.212. `Nc1ccnn1Cc1cccs1` was tested, and the z-score was -0.113. In the case of `CC(=O)OCCNc1cc(SCc2ccco2)c2nonc2c1[N+](=O)[O-]`, the z-score is reported as -0.392. With `O=c1c2ccccc2ncn1-c1ccc(Cl)c(Cl)c1` the z-score was -0.569. `Cc1cc2ccccc2nc1SCC(=O)N1c2ccccc2CC1C` (centres undefined) showed a z-score of 0.174. `CCN1CCN(C(=O)c2ccc(CSc3ccc(C)cc3)cc2)CC1` gave a z-score of -0.127. For `O=C(COC(=O)c1ccncc1)NC(=O)C1CCCCC1`, the z-score was 0.0543. `CC(Sc1nnc(Cc2cccs2)n1C1CCCCC1)C(=O)N1CCc2ccccc21` (centres undefined) was tested, and the z-score was 0.645. `NC(=O)c1ccsc1NC(=O)COC(=O)Cc1cccc2ccccc12` was tested, and the z-score was 0.233. For `CCN(CC)CCNC(C(=O)Nc1ccc([N+](=O)[O-])cc1Br)c1ccccc1` (centres undefined), the z-score was 0.798. In the case of `CC1CCCCC1NC(=O)C(=O)NCC1CCCO1` (centres undefined), the z-score is reported as -0.187. `Cc1cc(Oc2ccc(C(C)(C)C)cc2)nc(N2CCOCC2)n1` was tested, and the z-score was -0.693.
